Test results published in US20220185881A1 (JIANGSU HENGRUI MEDICINE, published 2022).

Target: human Claudin 18.2 (human)
Test: cell-based or functional assay

IC50 (ng/ml), ADCC effect (FcrR3A-V158-NFAT-RE-Jurkat effector cells, Bright-Glo), NUGC4 cells with high expression of Claudin 18.2: 32.2 ng/mL | IC50 (ng/ml), ADCC effect (FcrR3A-V158-NFAT-RE-Jurkat effector cells, Bright-Glo), NUGC4 cells with low expression of Claudin 18.2: 35.5 ng/mL | IC50 (ng/ml), ADCC effect (FcrR3A-V158-NFAT-RE-Jurkat effector cells, Bright-Glo), NUGC4 cells with medium expression of Claudin 18.2: 30 ng/mL
B1: h1902-5 (antibody, human IgG1, kappa)
heavy: EVQLVQSGAEVKKPGASVKVSCKASGYTFTSYWMHWVRQAPGQRLEWMGMIHPNSGSTNYNEKFKGRVTITRDTSASTAYMELSSLRSEDTAVYYCARLKTGNSFDYWGQGTTVTVSS[human IgG1 constant region left out]
light: DIVLTQSPDSLAVSLGERATINCKSSQSLLNSGNQKNYLTWYQQKPGQPPKLLIYWASTRESGVPDRFSGSGSGTDFTLTISSLQAEDVAVYYCQNAYTYPFTFGQGTKLEIKRTVAAPSVFIFPPSDEQLKSGTASVVCLLNNFYPREAKVQWKVDNALQSGNSQESVTEQDSKDSTYSLSSTLTLSKADYEKHKVYACEVTHQGLSSPVTKSFNRGEC
